# The supplement of paper PMC11880418
# Where a name gives a salt, the structure may show the parent alone. The list shows a part of the results. The data scatter; read single values as rough.
# How the values were obtained:
# Test in all cases: ALDHbr (CSC) cell proportion score relative to DMSO vehicle (ratio to DMSO); breast (SUM159) / gastric (MKN45) / pancreatic (PANC1) / colon cancer lines; ALDHbr cells have high ALDH activity and are rich in cancer stem cells (CSC); higher = more CSC (ALDHbr) cells remaining
# Settings in all cases: 10 µM; 72 h
# [1] = system: MKN45
# [2] = system: PANC1
# [3] = system: SUM159
# [4] = system: T84
# 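Further: High-content imaging of ALDEFLUOR-stained cells with Hoechst-labelled nuclei in 384-well plates, triplicate wells, scored as Z-score against 0.1% DMSO vehicle, negative meaning fewer ALDHbr cells.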
SMILES,ALDHbr [1],ALDHbr [2],ALDHbr [3],ALDHbr [4]
COc1ccc2cc(CCC(C)=O)ccc2c1 [Nabumetone],0.984,0.89,1.1,0.92
CC(=O)CC(c1ccccc1)c1c(O)c2ccccc2oc1=O (stereo not given) [Warfarin],0.896,0.826,0.954,1.18
O=C(O)CCC(=O)c1ccc(-c2ccccc2)cc1 [Fenbufen],0.994,0.9,0.925,0.833
O=P(O)(O)C(O)(Cn1ccnc1)P(=O)(O)O [Zoledronic acid hydrate],0.921,0.97,0.909,1.05
"CC(C)NCC(O)c1cc(O)cc(O)c1 (stereo not given) [Metaproterenol sulfate, orciprenaline sulfate]",0.963,0.886,2.6,1.05
CCN(CCCc1ccccc1)CCCc1ccccc1 [Alverine citrate salt],1.38,0.756,1.04,0.786
COc1ccc([C@@H]2Sc3ccccc3N(CCN(C)C)C(=O)[C@@H]2OC(C)=O)cc1 [Diltiazem hydrochloride],0.985,0.875,0.997,0.829
CCN1CCN(c2cc3c(cc2F)c(=O)c(C(=O)O)cn3C2CC2)CC1 [Enrofloxacin],1.28,0.89,0.984,0.956
CCCNC(C)C(=O)Nc1ccccc1C (stereo not given) [Prilocaine hydrochloride],0.917,0.859,0.853,0.818
COc1ccc(CC2c3cc(OC)c(OC)cc3CC[N+]2(C)CCC(=O)OCCCCCOC(=O)CC[N+]2(C)CCc3cc(OC)c(OC)cc3C2Cc2ccc(OC)c(OC)c2)cc1OC (stereo not given) [Atracurium besylate],0.43,0.587,0.259,0.489
